In PubChem BioAssay (Tox21):
“And” between values parts separate entries of the source, which are not always exact repeats. Equal entries are not always repeated. This list was built around the results that the source calls inconclusive (neither active nor inactive); the mix of calls is not that of the screen. A potency beside an inconclusive call is a rough fit, not a confirmed value. More than one record can exist for a structure, and the calls need not agree. The source made the active and inactive calls. Calls follow the shape of the dose curve; as a rule, active = well fitted inhibition curve with a large enough effect in the repeat runs; inconclusive = weak or mixed curves; inactive = no such curve, though single readings can be large or run the other way.

Each compound was assayed against Cytochrome P450 1A2 (Homo sapiens) (UniProt P05177) (assay: Cytochrome P450 Family 1 Subfamily A Member 2 (CYP1A2) small molecule antagonists: luciferase reporter qHTS assay (AID 1671199; also: nearly all actives have a fitted effect of over 50% in size)). Conditions: P450-Glo CYP1A2 enzyme, luciferin luminescence, 1 h; series mostly up to 115 µM; activity change, negative = inhibition: at the top concentration.
Source text: National Center for Advancing Translational Sciences [NCATS]
U.S. Environmental Protection Agency [EPA]
National Institutes of Environmental Health Sciences [NIEHS]
National Toxicology Program [NTP]
U.S. Food and Drug Administration [FDA]
Cytochrome P450 (CYP) enzymes are membrane-bound hemeproteins that play a key role in metabolism of drugs and xenobiotics. Evaluation of the effect of chemicals on CYP isozymes is useful to minimize the adverse drug reactions and toxicities in drug development process. Tox21 chemicals were tested for their effect on CYP enzyme activities by using P450-Glo (TM) screening systems (Promega Corporation, Madison, WI). These systems provide a luminescent method containing proluciferin substrates and are converted to luciferin products by CYP isozymes. The luciferin products formed are detected with a luciferin detection reagent, and the amount of light produced is proportional to CYP activity. P450-Glo (TM) CYP1A2 screening system (Catalog. No. V9770) was used to detect the compounds that interfere in CYP1A2 activity. The positive control compound used for CYP1A2 assay is furafylline (Sigma-Aldrich, St. Louis, MO).
Tox21 Assay Protocol Summary:
Two ul of enzyme-substrate mix was dispensed into medium binding white/solid 1536-well plates (Greiner Bio-One North America Inc., Monroe, NC) using a BioRaptr Flying Reagent Dispenser (FRD, Beckman Coulter, Brea, CA). Compounds dissolved in DMSO and positive control (furafyllline) were transferred to the assay plates at 23 nl using a Pintool station (Wako, San Diego, CA). The assay plates were incubated at room temperature for 10 min. Then 2 ul of NADPH regeneration solution was added to each well of the assay plates using an FRD and incubated at room temperature for 1 h. The reaction was stopped by adding 4 ul of detection reagent using an FRD and after 20 min incubation at room temperature the luminescence signal was measured using a ViewLux plate reader (Perkin Elmer, Shelton, CT). Data were expressed as relative luminescence units.
% is scaled to controls: 0 for no effect and ±100 for the full control effect; potency is read from the fitted curve at half-maximal effect; tags tell the direction and shape of the fitted curve.

UniProt P05177, sequence (P05177 whole entry, looked up): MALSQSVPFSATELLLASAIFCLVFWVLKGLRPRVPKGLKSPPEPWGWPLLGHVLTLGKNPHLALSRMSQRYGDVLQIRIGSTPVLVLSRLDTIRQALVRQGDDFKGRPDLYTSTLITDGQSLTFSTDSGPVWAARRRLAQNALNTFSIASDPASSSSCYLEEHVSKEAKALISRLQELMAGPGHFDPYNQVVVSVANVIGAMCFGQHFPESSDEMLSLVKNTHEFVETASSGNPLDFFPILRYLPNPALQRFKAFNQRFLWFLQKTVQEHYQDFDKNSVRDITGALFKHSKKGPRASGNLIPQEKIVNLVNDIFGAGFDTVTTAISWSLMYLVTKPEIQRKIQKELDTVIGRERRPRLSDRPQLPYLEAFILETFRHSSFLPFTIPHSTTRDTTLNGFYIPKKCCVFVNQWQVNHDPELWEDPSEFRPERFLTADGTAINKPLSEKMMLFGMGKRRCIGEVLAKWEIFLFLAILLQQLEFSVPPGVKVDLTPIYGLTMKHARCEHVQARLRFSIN

Structure (SMILES) | Potency | activity change, negative = inhibition
CC(C)CCOC(=O)c1ccccc1 | inconclusive: 31.7 µM [inhibitor, single point] | –
Cc1ccc(CCn2c3c(c4cc(Cl)ccc42)CN(C)CC3)cn1 | inconclusive: 34.7 µM [inhibitor] | –
CCCCCCCCCCCC(=O)N(CC)CC | inconclusive: 71 µM [inhibitor, partial curve] | –
Nc1nc(=S)c2[nH]cnc2[nH]1 | active: 30.9 µM and active: 35.6 µM and inconclusive: 30.9 µM [inhibitor, partial curve] | –
CCCOC(=O)c1cc(O)c(O)c(O)c1 | active: 39.7 µM and active: 39.9 µM | –
O=C(O)c1cc(O)c2c(c1)C(=O)c1cccc(O)c1C2=O | active: 36.7 µM | –
CC(=O)Oc1ccc(C(c2ccc(OC(C)=O)cc2)c2ccccn2)cc1 | inconclusive: 39.7 µM [inhibitor, partial curve] | –
COc1cc(C=O)ccc1O | inconclusive: 80.3 µM [inhibitor, partial curve] and inconclusive: 71 µM [inhibitor, partial curve, poor fit] | –
O=[N+]([O-])c1ccc(O)cc1 | inconclusive: 79.6 µM [inhibitor, single point] | –
CCN(CC)CCSC(=O)C(c1ccccc1)c1ccccc1 | active: 15.5 µM | –
CC(=O)/C=C/C1=C(C)CCCC1(C)C | inconclusive: 57.5 µM [inhibitor, partial curve, poor fit] and inconclusive: 44.8 µM [inhibitor, partial curve] | –
Cc1c(-c2cccnc2)c2ccccc2n1CCCCC(=O)O | active: 31.7 µM | –
CCC1COC(=O)O1 (stereo not given) | inconclusive: 39.9 µM [inhibitor, partial curve] | –
O=C(O)CNc1ccccc1 | inconclusive: 44.8 µM [inhibitor, partial curve] | –
O=C1OC2(c3ccc(O)cc3Oc3cc(O)ccc32)c2ccc(N=C=S)cc21 | inconclusive: 40.7 µM [inhibitor, partial curve] | –
C[C@]12CCC(=O)C=C1CC[C@@H]1[C@@H]2C(=O)C[C@@]2(C)[C@H]1CC[C@]2(O)C(=O)CO | inactive | –
Cc1ccc2c(c1)C(=O)c1ccccc1C2=O | active: 8.91 µM | –
Nc1cccc(N)c1 | active: 63.2 µM and active: 39.4 µM and active: 31.7 µM | –
CCOC(=O)N1CCC(n2c(=O)[nH]c3cc(Cl)ccc32)CC1 | inconclusive: 17.4 µM [inhibitor, partial curve] | –
CC(=O)C1(C)CC2=C(CCCC2(C)C)CC1C (stereo not given) | inactive | –

Structure (SMILES) | Potency | activity change, negative = inhibition
CCCCC/C=C\C/C=C\CCCCCCCC(=O)O | inconclusive: 69.8 µM [inhibitor, partial curve] | –
COC(=O)CC#N | inconclusive: 33.4 µM [inhibitor, partial curve] | –
CN1N=C(C(N)=O)CCC1=O | inconclusive: 27.5 µM [inhibitor, partial curve, poor fit] | –
O=[N+]([O-])c1ccccc1CCO | inconclusive: 64 µM [inhibitor, partial curve, poor fit] | –
CO[Si](CCCOCC1CO1)(OC)OC (stereo not given) | inconclusive: 71 µM [inhibitor, partial curve, poor fit] | –
CC(=O)Nc1ccc(CC(=O)O)cc1 | inconclusive: 31.7 µM [inhibitor, partial curve, poor fit] | –
CCCCN1C(=O)c2ccccc2C1=O | active: 2.61 µM | –
CO/N=C1\CN(c2nc3c(cc2F)c(=O)c(C(=O)O)cn3C2CC2)CC1CN (stereo not given) | – | inactive: 0.149% [at 53 µM]
C[C@H](CCC(=O)O)[C@H]1CC[C@H]2[C@@H]3CC[C@@H]4C[C@H](O)CC[C@]4(C)[C@H]3CC[C@]12C | inactive | –
CCCCCCCCOc1ccc(C(=O)c2ccccc2)c(O)c1 | inconclusive: 71.7 µM [inhibitor, single point] and inconclusive: 35.6 µM [inhibitor, partial curve] and inactive | –
CC(C)=CCC[C@@](C)(O)[C@H]1CC=C(C)CC1 | inconclusive: 34.7 µM [inhibitor, partial curve, poor fit] | –
C=CC(=O)OCCOC(=O)CCC(=O)O | inconclusive: 35.6 µM [inhibitor, partial curve] | –
NC(=O)c1ccncc1 | inconclusive: 74.2 µM [inhibitor, partial curve, poor fit] | –
CN=C(NC#N)Nc1ccc(C2=NNC(=O)CC2C)cc1 (stereo not given) | – | inactive: 10.1% [at 53 µM]
CC(C)C(C)(C)C(C)(C)C(C)(C)S | inconclusive: 54.8 µM [inhibitor, partial curve] | –
COC(=O)c1nc(Cl)c(Cl)nc1N | active: 4.36 µM | –
CCCCCCCCCCCCCC[N+](C)(C)Cc1ccccc1 | active: 72.1 µM and inactive and inconclusive: 20 mM [inhibitor, partial curve] | –
CO[Si](OC)(OC)c1ccccc1 | inconclusive: 39.9 µM [inhibitor, partial curve] | –
CC1(C)S[C@@H]2[C@H](NC(=O)COc3ccccc3)C(=O)N2[C@H]1C(=O)O | – | inactive: -23.2%
O=C(c1ccc(O)c(O)c1)c1ccc(O)cc1O | active: 31.7 µM | –
